Test results as given in PubChem BioAssay AID1645887 (National Center for Advancing Translational Sciences (NCATS), 2021).
Values joined by “and” are separate entries in the source; they are usually repeats but may differ in a detail not shown here. Equal entries are not always repeated. In all, about 16,000 compounds went through this assay and about 40 (0.2%) were called active. Roughly 1% stayed inconclusive and do not appear here. The call rests on the fitted dose curve; in most records, active means well fitted activation curve with a large enough effect; inconclusive means small, poorly fitted or top-dose-only effect, or another doubt; inactive means no such curve, though single readings can be large or run the other way. Some of the results follow.

These compounds were tested against Rap guanine nucleotide exchange factor 4 (Homo sapiens) (UniProt Q8WZA2) (assay: Validation qHTS for agonist of cAMP-regulated guanine nucleotide exchange factor 4 (EPAC2)). Details: EPAC2 Rap1B BODIPY-GDP exchange, fluorescence; activation: active compounds read high.
UniProt Q8WZA2, sequence (Q8WZA2 whole entry, looked up): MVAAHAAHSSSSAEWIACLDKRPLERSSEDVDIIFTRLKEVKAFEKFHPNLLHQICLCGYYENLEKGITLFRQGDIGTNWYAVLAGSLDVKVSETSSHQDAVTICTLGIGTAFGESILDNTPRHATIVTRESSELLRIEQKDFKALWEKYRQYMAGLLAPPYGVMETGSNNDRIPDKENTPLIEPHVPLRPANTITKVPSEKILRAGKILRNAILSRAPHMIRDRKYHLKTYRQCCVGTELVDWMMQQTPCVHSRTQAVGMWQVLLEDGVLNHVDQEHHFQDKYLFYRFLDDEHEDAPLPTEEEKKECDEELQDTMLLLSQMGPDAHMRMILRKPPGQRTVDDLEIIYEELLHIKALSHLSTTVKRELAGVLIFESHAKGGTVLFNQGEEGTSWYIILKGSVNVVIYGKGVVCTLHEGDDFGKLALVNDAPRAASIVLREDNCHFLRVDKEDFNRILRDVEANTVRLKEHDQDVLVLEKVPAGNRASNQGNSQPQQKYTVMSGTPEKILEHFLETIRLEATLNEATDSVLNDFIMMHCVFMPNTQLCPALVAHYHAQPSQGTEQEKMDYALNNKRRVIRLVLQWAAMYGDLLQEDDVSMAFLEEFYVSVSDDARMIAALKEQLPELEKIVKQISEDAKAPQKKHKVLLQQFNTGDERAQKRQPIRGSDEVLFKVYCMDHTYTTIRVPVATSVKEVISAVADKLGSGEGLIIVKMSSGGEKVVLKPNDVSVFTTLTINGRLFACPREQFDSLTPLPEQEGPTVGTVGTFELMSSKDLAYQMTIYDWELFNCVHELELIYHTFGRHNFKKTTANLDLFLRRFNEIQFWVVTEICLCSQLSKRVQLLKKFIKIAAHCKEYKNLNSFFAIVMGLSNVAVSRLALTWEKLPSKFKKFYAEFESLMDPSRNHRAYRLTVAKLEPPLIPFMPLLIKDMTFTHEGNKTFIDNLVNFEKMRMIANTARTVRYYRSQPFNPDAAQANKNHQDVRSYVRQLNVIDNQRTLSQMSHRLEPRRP
Summary of the method: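 Signal normalized against 6.5 mM cAMP as agonist control. Mix of EPAC2 (100 nM), RAP1B-BODIPY-GDP (250 nM) and GDP (50 uM) was read kinetically at 480/540 nm, every 5 min over 30 min, after 5 min room-temperature incubation with compound.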
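Further: exchange makes BODIPY-GDP fluorescence drop when released from Rap1B; series mostly up to about 150 µM.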
On the % scale 0 is the no-effect control and ±100 the full control effect.

activation, inactive:
CC1(C)O[C@@H]2C[C@H]3[C@@H]4C[C@H](F)C5=CC(=O)CC[C@]5(C)[C@H]4[C@@H](O)C[C@]3(C)[C@]2(C(=O)CO)O1 8.65%
Cc1ccccc1-c1ccc2ncnc(N(C)Cc3ccco3)c2c1 -2.29%
CC(=O)OCC(=O)[C@@]1(O)CCC2C3CCC4=CC(=O)CC[C@@]4(C)[C@]3(F)C(O)C[C@]21C (stereo partly drawn) -14.6%
C/C(Nc1ccc2oc(=O)ccc2c1)=C1/C(=O)CC2[C@@H]1C2(C)C (stereo partly drawn) -2.61%
COc1cc(=O)n2c(c1C(=O)NC(C)c1ccco1)CCN(Cc1cc3ccccc3o1)CC2 (stereo not drawn) -3.58%
Cn1c(=O)c(-c2ccccc2)nc2cnc(N3CCNCC3)nc21 -2.01%
O=C1N=C(O)CN1/N=C/c1ccc(-c2ccc([N+](=O)[O-])cc2)o1 -6.72% and -7.68%
CC1=CC(=O)OC1Cc1ccc2ccccc2n1 (stereo not drawn) -19.6%
Cc1cnc(CNc2cc(-c3ccccc3C)ncn2)cn1 -5.22%
Cn1cccc1C(=O)N1CCC2(CCN(Cc3ccc(C#N)cc3)CC2)CC1 -4.2%
COCC(=O)N1CCC2(CC1)CN(c1cccc(-c3ccccc3)c1)C2 -17%
c1cncc(CNc2ccnc(-c3cccnc3)n2)c1 -12.7%
COc1ncc2nc(CCc3ccccc3)c(=O)n(C3CC3)c2n1 -8.18%
CN(C(=O)CCCOc1ccc2[nH]c(=O)ccc2c1)C1CCCCC1 -19.8% and 2.33% and -57%
NNC(=O)c1ccncc1 -4.63% and 1.79% and -8.32%
Nc1ncnc2c1ncn2[C@@H]1O[C@H](COP(=O)(O)OP(=O)(O)OC[C@H]2OC(O)[C@H](O)[C@@H]2O)[C@@H](O)[C@H]1O (stereo partly drawn) -3.1%
COc1ccccc1CCn1c(=O)cnc2cncnc21 -7.61%
N#Cc1ccc(CN2CCC3(CC2)CCN(C(=O)c2cccc(F)c2)CC3)cc1 -10.5%
COc1cccc(-c2cncnc2NCc2cccnc2)c1 -5.53%
COc1cccc(-c2ccc(O)c(CNC(c3ccccc3)c3ccc(Cl)cc3)c2)n1 (stereo not drawn) 2.58%
COc1cc2nc(N(C)C)c(CNCc3nonc3C)cc2c(OC)c1OC -13.3%
FC(F)(F)c1cc(CN2CC3(CCNCC3)C2)cc(C(F)(F)F)c1 1.1%
O=c1c(-c2cccc(F)c2)nc2cncnc2n1Cc1ccc(F)cc1 5.27%
CN(C)c1ncc2nc(-c3cn(C)c4ccccc34)c(=O)n(C[C@H]3CCCO3)c2n1 -6.67%
Cn1cccc1C(=O)N1CCC[C@@]2(CCN(c3ncccn3)C2)C1 -12.3%
CN1CC[C@@]2(CCCN(C(=O)c3cccn3C)C2)C1 -24.2%
OCc1cc([C@@H](O)CNCCCCCCOCCCCc2ccccc2)ccc1O -35.4%
COC(=O)N1CCC2(CCCN(c3cccc(-c4ccccc4)c3)C2)CC1 10.3%
CC(C)(Oc1ccc(C2CCCc3ccccc32)cc1)C(=O)O (stereo not drawn) -5.33%
Cc1ccc2cc(CNC(C)CO)c(N3CCC(O)CC3)nc2c1 (stereo not drawn) -2.55%
CC(=O)O[C@]1(C)CC[C@]23CC1C(C)(C)C2CC[C@@H]3C (stereo partly drawn) -14.3%
CN(C)c1ccc(/C=C/c2ccnc3ccccc23)cc1[N+](=O)[O-] -6.84%
O=C1CCC[C@@H]2C[C@@]3(C[C@@H]4CCN1[C@H]24)Nc1cc([N+](=O)[O-])ccc1NC3=NCc1ccccc1 -5.87%
COc1ccc(-c2ccc3cc(C(=O)O)ccc3c2)cc1C12CC3CC(CC(C3)C1)C2 -11.6%
O=C(O)/C=C/C(=O)Nc1ccc(S(=O)(=O)Nc2nccs2)cc1 -4.2%
C[C@@]12C(=O)OC(=O)[C@@]1(C)[C@@H]1CC[C@@H]2O1 -29.3%
COc1c2c(nc3occc13)C(CC=C(C)C)(OC)C(=O)C=C2 (stereo not drawn) -18.8%
COc1ccc(-n2c(=O)cnc3cnc(N4CCN(C)CC4)nc32)cc1 -6.38%
C=C[C@@H]1c2ccccc2N(S(=O)(=O)c2ccc(C)cc2)[C@H](c2ccc(OC(C)=O)cc2)C1(C#N)C#N -28.4%
FC(F)(F)c1ccccc1-c1nccc(NCc2ccccc2)n1 -25.8%
COCCn1c(=O)c(-c2cccs2)nc2cnc(Oc3ccc(OC)cc3)nc21 3.9%
Cc1nc2cc(NC(=O)[C@@H]3C[C@@H](Sc4ccccn4)CN3Cc3ccc4c(c3)OCCO4)ccc2s1 0.873%
CC(=O)OCC1=C(C(=O)O)N2C(=O)[C@@H](NC(=O)Cc3ccccc3)[C@H]2SC1 7.17%
CCN1CCCC1CNC(=O)c1cc(S(N)(=O)=O)ccc1OC (stereo not drawn) 0.769% [middle of 4 runs]
C[N+]1(CC(=O)c2ccccc2)CCc2ccccc2C1 (stereo not drawn) -15%
CC(=O)OC1CCC2(C)C(CCC3(C)C2C(=O)C=C2C4CC(C)(C(=O)OCCN5CCCCC5)CCC4(C)CCC23C)C1(C)C (stereo not drawn) -8.66%
CN1[C@H](CC(=O)c2ccccc2)CCC[C@H]1C[C@H](O)c1ccccc1 5.74%
O=C(c1ccc(OCCCc2cnc[nH]2)cc1)C1CC1 -3.61%
COCC(=O)N1CCC2(CC1)CN(Cc1ccc(C#N)cc1)C2 0.163%
C[C@]12CCC(=O)C=C1CCC1C2C(O)C[C@]2(C)C1CC[C@]2(O)C(=O)CO (stereo partly drawn) -12.8%
CC(=O)OC1CCC2(C)C3=C(CCC2C1(C)C)[C@@]1(C)CCC(C(C)CCC=C(C)C)[C@@]1(C)CC3 (stereo partly drawn) -10.4%
c1ccc2ccccc2c1 -7.81%
O=C(O)c1cc2cc(F)ccc2[nH]1 -17.2% and -10.3%
